Reference: the supplement of paper PMC12889115
The list shows a part of the results. Rule as the data show it: active = 25% or less and inactive = the rest. Many values rest on one well or one pass, so single values are uncertain.

Tests used:
[1] = system: Salmonella enterica serovar Typhimurium SL1344; assay: bacterial growth OD600 after 18 h in MHB with 0.5 µg/mL polymyxin B; higher = more bacterial growth (less inhibition); settings: 25 µM; polymyxin B 0.5 µg/mL; system: broth
Description: (§1)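 Secondary screen of the 553 primary hits at 25 µM. (i) S. Typhimurium SL1344 grown in Mueller-Hinton broth with 0.5 µg/mL polymyxin B, OD600 read after 18 h. (ii) SAFIRE assay: RAW 264.7 macrophages infected with S. Typhimurium sifB::gfp (MOI 30); compound added 2 h post-infection; cells fixed at 18 h; GFP-positive pixel fraction per macrophage imaged by confocal microscopy and expressed as % of DMSO control.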

[2] = system: Salmonella enterica serovar Typhimurium SL1344; assay: intramacrophage bacterial GFP load (SAFIRE), percent of DMSO control (% of DMSO); higher = more intracellular bacteria (less inhibition); settings: 25 µM; system: infected RAW 264.7 macrophages
Description: as §1
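For bacterial growth OD600 after 18 h in MHB with 0.5 µg/mL polymyxin B in this document: polymyxin B level opens the outer membrane while sparing the inner membrane, with novobiocin wells as reference growth inhibitor.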
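For intramacrophage bacterial GFP load (SAFIRE), percent of DMSO control in this document: compounds tested were the hits of an earlier 50 µM broth growth screen of a drug-like diversity library run with polymyxin B.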

| SMILES | bacterial growth OD600 [1] | intramacrophage bacterial GFP load [2] |
| --- | --- | --- |
| CCOC(=O)C1(Cc2ccccc2C(F)(F)F)CCN(Cc2ccc(COC)o2)CC1 | 0.004 | active: 6.24 |
| O=C(CCC1(Cc2ccc3ccccc3c2)CCC(=O)N1)NCc1cccc(Cl)c1 (stereo unspecified) | 0 | inactive: 144 |
| Cc1ccc(F)cc1S(=O)(=O)N1CCCC(CO)(Cc2cccc(Cl)c2)C1 (stereo unspecified) | -0.01 | inactive: 107 |
| O=C(/C=C/c1cccc(F)c1)N(Cc1ccncc1)Cc1cccc(OCCc2ccc(F)cc2)c1 | -0.002 | inactive: 45.7 |
| COc1cccc(CNCc2c(C(=O)N3CCCCCCC3)nc3ccc(Cl)cn23)c1 | 0.081 | active: 17.6 |
| COc1cc(CC2(CCC(=O)N(C)Cc3cnn(-c4ccccc4C)c3)CCC(=O)N2)ccc1F (stereo unspecified) | 0.437 | inactive: 87.4 |
| CSCCC(=O)N1CCc2[nH]nc(-c3ccc(Cl)cc3)c2C1 | 0.007 | inactive: 83.1 |
| COCCNC(=O)c1ccc(OC2CCN(Cc3ccccc3OC)CC2)c(Cl)c1 | 0.637 | inactive: 164 |
| Cc1nc(N2CCC(C(=O)N3CC[C@@H]4CCCC[C@H]4C3)CC2)nc2cc(S(C)(=O)=O)ccc12 | -0.004 | inactive: 57 |
| CC1CN(Cc2ccc3nsnc3c2)Cc2cc(Cl)ccc2O1 (stereo unspecified) | 0.009 | inactive: 134 |
| C=CCO[C@H]1[C@H](NC(=O)COC)c2ccccc2C12CCN(C(=O)/C=C/c1cc(F)ccc1F)CC2 | 0.492 | inactive: 29.6 |
| Cc1csc(CNC(=O)CC(c2cccc(O)c2)c2cccc(Cl)c2)n1 (stereo unspecified) | 0.414 | inactive: 99.1 |
| COCCn1cnc2cc(NC(=O)C3CCCCC3)cc(C(=O)N3CCC(c4ccccc4)CC3)c21 | 0.114 | inactive: 155 |
